Test results published in a compilation of properties of binary mixtures (doi:10.1016/j.jct.2020.106383).
The densities may have been worked out from excess volumes.

Test: xn = mol fraction of the nth substance listed
Details: 100 kPa

CCOC(C)=O + CCCC[n+]1ccn(C)c1.O=S(=O)([N-]S(=O)(=O)C(F)(F)F)C(F)(F)F
mass density [kg/m3]
Details	x2 = 0	x2 = 0.1045	x2 = 0.2067	x2 = 0.3058	x2 = 0.4012	x2 = 0.5002	x2 = 0.6065	x2 = 0.7081	x2 = 0.7932	x2 = 0.9087
298.15 K	894.8	–	1139.5	1209.5	1261.8	–	1342.8	1372.3	1393.4	–
303.15 K	888.6	1034.4	1133.5	1203.8	1256.1	1299.7	1337.5	1367.2	–	1412.8
308.15 K	882.4	1028.4	1127.6	1198	–	1294.2	1332.3	1362.2	1383.5	1408
313.15 K	876.2	1022.3	1121.7	1192.2	1245	1288.9	1327.1	–	–	1403.3
318.15 K	–	1016.2	–	1186.4	1239.3	–	1321.9	–	1373.7	–
323.15 K	863.8	1010.2	1109.9	–	1233.8	1278	1316.7	1347.1	–	1393.8

CCCC[n+]1ccn(C)c1.O=S(=O)([N-]S(=O)(=O)C(F)(F)F)C(F)(F)F + CCOC(C)=O
x1 = 1
Details	mass density [kg/m3]
298.15 K	1433.7
303.15 K	1428.9
308.15 K	1424.1
313.15 K	1419.4
318.15 K	1414.6
323.15 K	1409.9
